Results on 115 sequences are retold here after the BET-seq Pho4 binding data (Le et al. 2018).

The list shows a part of the results. Values were computed here from the reads of four pooled replicates and scatter widely.

For this test, the target named is T1, Pho4 (S. cerevisiae) (UniProt P07270).
T1 sequence: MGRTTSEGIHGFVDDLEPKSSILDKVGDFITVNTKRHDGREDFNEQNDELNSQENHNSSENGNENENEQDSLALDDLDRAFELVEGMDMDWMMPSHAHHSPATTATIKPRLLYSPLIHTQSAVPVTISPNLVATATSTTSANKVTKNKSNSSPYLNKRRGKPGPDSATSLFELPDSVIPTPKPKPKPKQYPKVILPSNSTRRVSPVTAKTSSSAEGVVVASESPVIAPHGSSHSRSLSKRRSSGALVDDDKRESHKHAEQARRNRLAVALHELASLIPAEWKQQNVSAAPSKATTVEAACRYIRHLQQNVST
In words: relative binding free energy (BET-seq); higher = weaker binding. The following applies: reference: library average.
Consider GGAGGCACGTGTGATA, for which the “relative binding free energy” value is -0.09 kcal/mol.
The value for AGGTACACGTGAAAGG was 0.21 kcal/mol; that for GTGATCACGTGGGCGG was -0.02 kcal/mol.
The value for CGGGGCACGTGTATGA was -0.22 kcal/mol; that for GGTCTCACGTGATGTG was 0.26 kcal/mol; that for TTGTTCACGTGATAAT was 0.33 kcal/mol.
The value for GTGGTCACGTGAGATC was 0.36 kcal/mol.
Consider AAAGGCACGTGCGAGG, for which the “relative binding free energy” value was -0.14 kcal/mol.
Under TTGATCACGTGCAGGT stands 0.13 kcal/mol; under GTTAACACGTGTAGGA, 0 kcal/mol; under CATTGCACGTGTAGTG, 0.05 kcal/mol.
The value for CGGGTCACGTGTTTAT was 0.2 kcal/mol.
Under GTAACCACGTGGTGGT stands -0.04 kcal/mol.
As for TAAGGCACGTGATGTA, the “relative binding free energy” value was -0.08 kcal/mol.
With TAAAACACGTGGTGCG, the “relative binding free energy” value amounted to 0.01 kcal/mol.
As for GTAGTCACGTGTGGGT, the “relative binding free energy” value is 0.23 kcal/mol.
As for TCAGTCACGTGGGTGA, the “relative binding free energy” value was -0.29 kcal/mol.
Under TTGGTCACGTGAAGGC stands 0.32 kcal/mol; under TTTTGCACGTGGTATT, -0.11 kcal/mol.
The value for ATGCACACGTGTGTAG was 0.2 kcal/mol; that for GCGGGCACGTGTGCAG was -0.09 kcal/mol.
With TATGTCACGTGTTGAG, the “relative binding free energy” value turned out to be 0 kcal/mol.
For TTCTGCACGTGTGTTG, the “relative binding free energy” value came out at 0.09 kcal/mol.
Under CTGTGCACGTGGCGAG stands -0.08 kcal/mol; under AAAGACACGTGGGGAT, -0.03 kcal/mol; under GTGCGCACGTGTTTAG, -0.04 kcal/mol.
The value for GGGTGCACGTGGGTCC was -0.12 kcal/mol; that for CTTTACACGTGTTAGG was 0.19 kcal/mol; that for TAGTACACGTGCTTGA was 0.15 kcal/mol.
AGACTCACGTGGTAGT: the “relative binding free energy” value is 0.28 kcal/mol.
As for GGGGCCACGTGAGAGG, the “relative binding free energy” value came to 0.12 kcal/mol.
On to GTTTGCACGTGGGCGC, for which the “relative binding free energy” value is -0.09 kcal/mol.
The value for AGGGGCACGTGCATAT was -0.18 kcal/mol; that for TGATACACGTGTGCGT was 0.08 kcal/mol; that for AGTTGCACGTGTGTCT was 0.05 kcal/mol.
Under ATGGTCACGTGGTGGG stands 0.1 kcal/mol; under AATGGCACGTGAGGTA, 0.12 kcal/mol; under GGATGCACGTGGTCAT, -0.12 kcal/mol.
Under TATGGCACGTGGCCTG stands -0.22 kcal/mol; under GAGTACACGTGTTGGG, 0.21 kcal/mol; under GATGACACGTGATTTG, 0.3 kcal/mol.
AGATTCACGTGGGCGT: the “relative binding free energy” value was 0.02 kcal/mol.
Under GTCTGCACGTGGGGAC stands 0.05 kcal/mol; under GGTGACACGTGCAGTT, 0.16 kcal/mol.
The value for AGGGGCACGTGTAGAT was 0.2 kcal/mol; that for AGAGGCACGTGTGGAT was -0.02 kcal/mol.
With TGATTCACGTGCGTTA, the “relative binding free energy” value worked out at 0.28 kcal/mol.
The value for TTGTTCACGTGACGTA was 0.27 kcal/mol.
With TACGCCACGTGTTGGG, the “relative binding free energy” value is -0.1 kcal/mol.
The value for GGTTGCACGTGTGATA was 0.17 kcal/mol.
The value for TAACGCACGTGATGGT was -0.04 kcal/mol.
With GTATTCACGTGGGCGG, the “relative binding free energy” value was 0.19 kcal/mol.
Under TACTTCACGTGGTGTC stands 0.22 kcal/mol.
The value for TGTGTCACGTGTCATC was 0.09 kcal/mol.
The value for AGCGTCACGTGAGGGA was 0.07 kcal/mol; that for TTACTCACGTGTCGTG was 0.27 kcal/mol; that for TCAGGCACGTGTATGT was -0.03 kcal/mol.
Turning to TTATGCACGTGGTAAT, the “relative binding free energy” value came to 0 kcal/mol.
Under AAGGGCACGTGAGAGG stands 0.17 kcal/mol.
Under TATATCACGTGTGCAG stands -0.01 kcal/mol.
GGTTACACGTGGATGG: the “relative binding free energy” value was found to be 0.15 kcal/mol.
The value for AGATTCACGTGATTTT was 0.22 kcal/mol.
As to GGTGTCACGTGATCAG, the “relative binding free energy” value was 0.04 kcal/mol.
For CGTTTCACGTGAGTAG, the “relative binding free energy” value is 0.39 kcal/mol.
For the sequence GTTTCCACGTGTGGAT, the “relative binding free energy” value was 0.19 kcal/mol.
For the sequence GCTGACACGTGTGTAG, the “relative binding free energy” value was 0.07 kcal/mol.
The value for GCTAGCACGTGAGGAT was 0.26 kcal/mol; that for CGTTACACGTGAAGGG was 0.34 kcal/mol; that for GCTGTCACGTGTTTGT was 0.03 kcal/mol.
As to GGTGACACGTGCAGGC, the “relative binding free energy” value is 0.02 kcal/mol.
As to TGTCGCACGTGATGTA, the “relative binding free energy” value was 0.07 kcal/mol.
Under TTTCTCACGTGATTTA stands 0.3 kcal/mol; under TATTACACGTGTGTCG, 0.13 kcal/mol; under GAGGGCACGTGAGAGT, 0.17 kcal/mol.
The value for GTGCGCACGTGGTTGT was -0.24 kcal/mol; that for AGAGTCACGTGGGTCA was -0.04 kcal/mol; that for GAACGCACGTGGGATG was -0.05 kcal/mol.
Under CGAATCACGTGGTTGT stands 0.22 kcal/mol; under CGTTTCACGTGCGTGA, 0.1 kcal/mol; under TGAGTCACGTGCGGTG, 0 kcal/mol.
For CGGGTCACGTGGATAA, the “relative binding free energy” value was 0.06 kcal/mol.
Under GTTCGCACGTGGTTAT stands -0.07 kcal/mol.
Under TCTGTCACGTGTTACT stands 0.09 kcal/mol; under GTGTTCACGTGGTTAC, 0.27 kcal/mol.
The value for TGTTTCACGTGAGACG was 0.28 kcal/mol; that for GGACGCACGTGATGTT was 0.12 kcal/mol.
Turning to TTAAACACGTGGGTGG, the “relative binding free energy” value was -0.19 kcal/mol.
Under TGTGCCACGTGGATTG stands -0.15 kcal/mol; under TCGGCCACGTGGGTGG, -0.26 kcal/mol.
Under CCGGTCACGTGTTAGG stands 0.18 kcal/mol; under GTGGTCACGTGGTGGA, 0.17 kcal/mol.
Turning to TGAGGCACGTGGGTCA, the “relative binding free energy” value is -0.26 kcal/mol.
The value for GTCGGCACGTGGCATG was -0.17 kcal/mol; that for TTCTGCACGTGGGTGC was -0.24 kcal/mol; that for AGTGACACGTGTGCTA was -0.08 kcal/mol.
The value for TGTTCCACGTGGTGGT was 0.03 kcal/mol.
The value for GGAGACACGTGTTTAT was 0.04 kcal/mol; that for ATAGTCACGTGGGTTT was -0.03 kcal/mol.
On to GGTAGCACGTGTGTGA, for which the “relative binding free energy” value was -0.06 kcal/mol.
As for GCGGACACGTGGGAGT, the “relative binding free energy” value is -0.04 kcal/mol.
The value for TTGTCCACGTGGAGAG was 0.12 kcal/mol.
Under CGGATCACGTGAGGGG stands 0.33 kcal/mol.
Under TACCGCACGTGGTGGT stands -0.12 kcal/mol; under GTCGACACGTGGGTCT, 0.02 kcal/mol; under AGAGGCACGTGTTTGT, -0.15 kcal/mol.
With TGAGACACGTGCATGT, the “relative binding free energy” value came out at 0.04 kcal/mol.
Under ATAGACACGTGTTGAT stands -0.06 kcal/mol.
The value for GGCTCCACGTGGGCGG was -0.14 kcal/mol.
On to GTGGTCACGTGTCGCA, for which the “relative binding free energy” value turned out to be 0.16 kcal/mol.
Under ACGTGCACGTGAGTAT stands 0.09 kcal/mol.
The value for TGTGCCACGTGAGTAG was -0.01 kcal/mol; that for AATCGCACGTGTTTAT was 0.04 kcal/mol.
For ACTTTCACGTGCGGGT, the “relative binding free energy” value turned out to be 0.27 kcal/mol.
As to CTGGGCACGTGAAAGG, the “relative binding free energy” value came out at 0.24 kcal/mol.
The value for ACGGTCACGTGGGTGC was -0.03 kcal/mol.
